Experimental data as given in PubChem BioAssay AID1508623 (National Center for Advancing Translational Sciences (NCATS), 2021).
The campaign covered roughly 48,000 compounds. About 450 (0.94%) were called active. About 19% were inconclusive and are not listed. Calls come from the whole dose curve; as a rule, active = well fitted inhibition curve with a large enough effect; inconclusive = small, poorly fitted or top-dose-only effect; inactive = no such curve, though single readings can be large or run the other way. This is one part of the list.

Assay: Primary qHTS for Identification of Small Molecule Inhibitors of Huntingtin Promoter Activity; note: nearly all actives have a fitted effect of over 50% in size
Conditions: HEK293 HTT promoter firefly luciferase reporter (activity 0% = vehicle and -100% = no light), 24 h; series mostly up to 57.5 µM; activity change, negative = inhibition: at the top concentration
In short: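 HEK293 luciferase promoter-reporter cells (2,500/well) plated 24 h, then compounds added at up to 57.5 uM final for 24 h at 37 °C. Firefly luminescence by Dual-Glo, normalized to vehicle (0%) and zero RLU (-100%).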

Activity change, negative = inhibition, inactive:
CCCN(CCC)CCNC(=O)c1cc(Sc2ccc(Cl)cc2)nc2ccccc12 -6.71%
Cc1cccc(CSCCNC(=O)CN(c2ccccc2)S(=O)(=O)N(C)C)c1 -26.2%
Cc1ccc(S(=O)(=O)c2cn(CC(=O)Nc3ccc4c(c3)OCO4)c3ccc(F)cc3c2=O)cc1 -9.13%
Cc1cccc(Nc2nc3ccccc3n3c(N)nnc23)c1 11.6%
Cc1cc2n(n1)CCCN2C(=O)Nc1cccc(C)c1C -9.69%
Cc1ccc(Cn2c(=O)c3cccnc3n(Cc3ccc(F)cc3)c2=O)cc1 -25.8%
Cc1cccc(CNC(=O)c2ccc(Cn3c(SCc4ccccc4)nc4cccnc43)cc2)c1 -15.8%
CCc1ccc2oc(C(=O)Nc3nc(-c4ccccc4)ns3)c(C)c2c1 1.64%
Cc1ccc(OC(C)C(=O)NCC2(N3CCOCC3)CCCCC2)cc1C (configuration not stated) -24.2%
Cc1c(C(=O)N(C)C)sc2c1c(=O)n(-c1ccc(F)cc1)c(=O)n2CC(=O)N(C)c1ccccc1 -16.9%
COc1ccccc1CNC(=O)CCC1N=C2c3ccccc3N=C(SCC(=O)NCCc3ccccc3)N2C1=O (configuration not stated) -12.3%
COc1ccc(Cl)cc1NC(=O)c1nc(S(C)(=O)=O)ncc1N(Cc1ccc(C)cc1)Cc1ccco1 -16.7%
Cc1cc2oc(C(=O)Nc3ccc(S(=O)(=O)Nc4onc(C)c4C)cc3)cc(=O)c2cc1C -17.8%
CCOc1ccc(-n2c(SC(C)C(=O)OC)nc3c([nH]c4ccccc43)c2=O)cc1 (configuration not stated) -15.7%
NC[C@H](O)c1ccc(O)c(O)c1 6.64%
CCN(CC)CCNC(=O)c1ccc(N)cc1 10%
CCOC(=O)c1c(NC(=O)/C=C/c2ccc(OC)cc2)sc2c1CCC(C)C2 (configuration not stated) -11.9%
O=C(CSc1nc(=O)[nH]c2c1CCCC2)NCc1ccc(Cl)cc1 -5.32%
CCN(CCCNC(=O)c1cc2c(=O)[nH]c3ccc(C)cc3c2s1)Cc1ccccc1 -20.9%
CCOC(=O)c1c(NC(=O)c2ccc(S(=O)(=O)N(C)C)cc2)sc2c1CCN(C)C2 -1.18%
COc1ccc(NC(=O)Cn2c(=O)n(CC3CCCO3)c(=O)c3ccccc32)cc1 (configuration not stated) -8.86%
CCCCCCNc1ncnc2c1sc1nc(N3CCOCC3)c3c(c12)CCCC3 -4.99%
CCCCSCCCNC(=O)c1cc(-c2cccnc2)nc2ccc(S(=O)(=O)N3CCC(C)CC3)cc12 -4.37%
O=C(Nc1cccc(C(=O)N2CCN(c3ccc(F)cc3)CC2)c1)c1nsc2ccccc12 -9.97%
Cc1oc2ccc(O)c(CN3CCN(Cc4ccccc4)CC3)c2c1C(=O)Nc1cccc(Cl)c1C 3.79%
CCCN(C(=O)c1nn(-c2ccc(C)cc2)c(=O)c2c1c1ccccc1n2C)c1ccccc1C -20.5%
CCOc1ccc(NC(=O)c2cnn3c(C(F)F)cc(-c4ccc(C)cc4)nc23)cc1 -7.39%
